# PubChem BioAssay AID1508649 (National Center for Advancing Translational Sciences (NCATS), 2021)
# About 830 (1.9%) of roughly 43,000 compounds were called active. Inconclusive results, whose numbers are uncertain, are shown with a selection of clear calls. The calls were made as follows: active = clear falling dose curves in both reporters; inconclusive = both reporters move, but less clearly or upward; inactive = either reporter flat; the % is the NLuc reporter signal. No potency is given beside an inconclusive call; the fits are too rough.
# Test: Cell-based coincidence reporter assay to measure PMP22 gene transcription in S16 Pmp22-F2sN cells - Primary screen
# Conditions: S16 Pmp22-F2sN Schwann cells (luciferase reporters placed in the Pmp22 gene), FLuc/NLuc coincidence luminescence, 24 h; measured here: NLuc reporter readout, at 57.5 µM (top of the series)
# Outline: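 Transcriptional readout in edited S16(c9) cells: two luciferases reported from the Pmp22 locus, measured in turn after 24 h compound incubation.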
# Potency is read from the fitted curve at half-maximal effect; tags tell the direction and shape of the fitted curve.
row,Structure (SMILES),Potency
1,CCOc1ccc(C(=O)Nc2ccc3nc(SCc4ccccc4)sc3c2)cc1,active: 8.91 µM
2,CCOc1ccc(N2C(=O)N(Cc3ccc(C)cc3C)c3ccccc3S2(=O)=O)cc1,"inconclusive [phenotype inactive, single point]"
3,COC(=O)c1scc(-c2ccccc2)c1S(=O)(=O)Nc1cccc(C)c1C,"inconclusive [phenotype inactive, partial curve]"
4,Cc1ccccc1Nc1c(-c2ccc(N3CCOCC3)cc2)nc2ncccn12,inactive
5,COc1ccc(-n2nc3c(N4CCCC(C(=O)NCCc5ccc(C)cc5)C4)nnc(C)c3c2C)cc1 (centres undefined),"inconclusive [phenotype inactive, single point]"
6,COc1cc2ccccc2cc1C(=O)Nc1ccc2oc(-c3cccc(Cl)c3Cl)nc2c1,active: 4.22 µM
7,COc1ccc(S(=O)(=O)N(CC(=O)NCc2ccc(C)cc2)c2ccc(Cl)cc2)cc1,"inconclusive [phenotype inactive, single point]"
8,O=C(Nc1ccc(F)c(Cl)c1)c1cc(S(=O)(=O)N2CCCc3ccccc32)ccc1F,"inconclusive [phenotype inactive, single point]"
9,CCOc1ccccc1CNC(=O)c1cc(-c2ccc(OC)cc2)nc2ccc(C(C)C)cc12,"inconclusive [phenotype inactive, partial curve]"
10,Cc1noc(/C=C/c2ccco2)c1S(=O)(=O)N1CCC(C(=O)Nc2ccc(F)c(Cl)c2)CC1,active: 11.9 µM
11,Cc1ccc2sc(N3CCN(C(=O)CCS(=O)(=O)c4ccc(F)cc4)CC3)nc2c1C,"inconclusive [phenotype inactive, partial curve, poor fit]"
12,COc1ccc(-c2nc(-c3ccccc3)c(-c3ccc(O)cc3)[nH]2)cc1,"inconclusive [phenotype inactive, single point]"
13,O=C(NCCc1csc(-c2cccc(F)c2)n1)c1cccs1,"inconclusive [phenotype inactive, single point]"
14,CCN(CC)CCCNc1sc(S(=O)(=O)c2ccccc2)nc1S(=O)(=O)c1ccc(Cl)cc1,"inconclusive [phenotype inactive, single point]"
15,Cc1ccc(NS(=O)(=O)c2ccc3[nH]c4c(c3c2)CCCC4)cc1N(C)C,active: 16.8 µM
16,COC(=O)NCC(c1cccnc1)N1CCN(c2ccc(F)cc2)CC1 (centres undefined),"inconclusive [phenotype inactive, single point]"
17,COc1ccc(C(=O)Nc2nnc(SCc3cc(=O)c4cc(C)cc(C)c4[nH]3)s2)cc1,inactive
18,Cc1ccccc1CN1CCC(CNc2ncnc3onc(-c4ccc(F)cc4)c23)CC1,"inconclusive [phenotype inactive, single point]"
19,COc1ccc(C(=O)OC2=C(C(=O)c3ccccc3)N(C)S(=O)(=O)c3ccccc32)cc1OC,"inconclusive [phenotype inactive, single point]"
20,Cc1ccc(NC(=O)c2cc(-c3ccc(Br)s3)nc3ccccc23)cc1F,"inconclusive [phenotype inactive, single point]"

row,Structure (SMILES),Potency
1,Cc1ccc(NC(=O)Cn2c(=O)n(CCC(=O)NCc3ccccc3Cl)c(=O)c3ccccc32)cc1,"inconclusive [phenotype inactive, single point]"
2,COc1cccc2cc(C(=O)NCCc3c(C)[nH]c4ccc(F)cc34)c(=O)oc12,inactive
3,CC1CCN(S(=O)(=O)c2ccc3c(ccn3CCC(=O)NCc3ccc(N(C)C)cc3)c2)CC1,"inconclusive [phenotype inactive, single point]"
4,CCc1ccccc1NC(=O)N1CCN(C(=O)c2nsc3ccccc23)CC1,inactive
5,O=C(Nc1ccc(F)c(Cl)c1)C1CCCN(c2cnccn2)C1 (centres undefined),inactive
6,COc1ccc(CC2C(=O)Nc3ccc(Br)cc32)cc1OC (centres undefined),inactive
7,Cc1ccccc1CSc1cn(CC(=O)N2CCCCCC2)c2ccccc12,"inconclusive [phenotype inactive, single point]"
8,Cc1cccc(N2CCN(C(=O)Cn3nc(Cc4cccnc4)c4ccccc4c3=O)CC2)c1C,"inconclusive [phenotype inactive, single point]"
9,COc1ccc(-c2onc(C)c2C)cc1S(=O)(=O)NCC1CCN(Cc2cccc(F)c2)CC1,active: 14.1 µM
10,O=C(CCC1N=C2c3ccccc3N=C(SCc3ccccc3F)N2C1=O)NCc1ccc(F)cc1 (centres undefined),"inconclusive [phenotype inactive, partial curve, poor fit]"
11,Cc1ccc2occ(CC(=O)N(Cc3ccc(C(C)C)cc3)C3CCS(=O)(=O)C3)c2c1 (centres undefined),"inconclusive [phenotype inactive, single point]"
12,COc1ccc(NC(=O)c2c(NCc3cccc(OC)c3)sc3c2CCCC3)cc1,"inconclusive [phenotype inactive, single point]"
13,Cc1ccc(OCc2ccc(-c3nc(C#N)c(NCc4ccccc4Cl)o3)o2)cc1,"inconclusive [phenotype inactive, single point]"
14,Cc1ccc(Cn2c(C(=O)O)c(CNC3CCCC3)c3ccc(C)cc32)cc1,inactive
15,COc1ccccc1Nc1nn2c(=O)c3ccc(C(=O)NCCC4=CCCCC4)cc3nc2s1,active: 2.99 µM
16,Cc1ccc2cc(CN(C(=O)c3cccc(Cl)c3)c3ccccc3)c(=O)[nH]c2c1,inactive
17,CCn1c(=O)c2cc(C(=O)NCCCN3CCC(C)CC3)sc2c2ccccc21,"inconclusive [phenotype inactive, partial curve]"
18,COc1ccc2nc(C)cc(Nc3ccc(Cl)c(Cl)c3)c2c1,"inconclusive [phenotype inactive, partial curve]"
19,Cc1cccc(NC(=O)CSc2nccn2-c2cccc(Cl)c2)c1C,inactive
